The record followed here is the RNAGym collection of RNA variant scans (doi:10.1101/gad.245936.114).

Variants at the floor of the assay are shown more often than the library holds them.

B1: tRNA (parent)
chain: CUCUCGGUAGCCAAGUUGGUUUAAGGCGCAAGACUUUAAUUUAUCACUACGAAAUCUUGAGAUCGGGCGUUCGACUCGCCCCCGGGAGAUUUUUUCCUCGAGCAA

The variants in the data set derive from B1. Put plainly: nonsense suppression (GFP-seq) (ratio to wild type); higher = more function; SUP4oc tRNA, yeast GFP reporter sort-seq. Put shortly:
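Yeast carrying genome-integrated SUP4oc tRNA variants from a library with ~3% random mutations were grown in raffinose/galactose medium with 80 mg/L adenine. Each strain also carried a galactose-driven GFP ochre reporter and RFP. Cells were sorted into GFP/RFP bins, and each bin was Illumina-sequenced (phred ≥30). Nonsense suppression (GFPSEQ) is the bin median GFP/RFP, weighted by each variant's estimated cell share per bin, relative to wild-type SUP4oc; variants needed ≥100 reads and ≥30 cells.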
On to CUCUCGGUACCCAAGUUGGUUUAAGGCGCAAGACUUUAAUUUAUCACUACGAAAUCUUGAUAUCGGGCGUUCGGCUCGCCCCCGGGAGAUUUUUUCCUCGAGCAA, for which the nonsense suppression was not above 0.026. Next, CUCUCGGUAGCCAAGUUGGUUUAAGGCGCCAGACUUUAAUUUAUCACUACGAAAUCUGGAGAUGGGGCGUUCGACUCGCCCCCGAGAGAUUUUUUCCUCGAGCAA: not above 0.026; CUCUCGGUAGCCAGGUUGGUUUCAGGCGCAAGACUUUAAUUUAUCACUACGAAAUCUUGAGAUCGGGCGUUCGACUCGCCCCCGGGAGAUUUUUUCCUCGAGCAA: not above 0.026; CUCUCGGUAGCCAAGUCGGUUUAUGGCGCAACACUUUAAUUUAUCACUACGAAAUCUUCAGAUCCGGCGUUCGACUCGCCCCCGGGAGAUUUUUUCCUCGAGCAA: not above 0.026. Next, CUCUCGGUAGCCAAGUUGGUUUAAGGCGCAAGGCUUUAAUUUAUCACUACGAAAUCUUGAGAUCGGGCGUUCGACUCGCCCCCGGGGGAUUUUUUCCUCGAGCAA: 0.0348; CUCUCGGUAGCCACAUUGGUUUAAGGCGCAAGACUUUAAUUUAUCACUACGAAAUCUUGAGAUCGCGCGUUCGACUCGCCCCCGGGAGAUUUUUUCCUCGAGCAA: not above 0.026. Next, CUCUCGGUCGCCAAAUUGGUUUAAGGCGCAAGCCUUUAAUUUAUCACUACGAAAUCUUGAGAUCGGGCGAUCGACUCGCCCCCGGGAGAUUUUUUCCUCGAGCAA: not above 0.026; CUCUCGGUAGCCAAGGUGGUUUAAGGCGCAAUACUUUAAUUUAUCACUACGAAACCUUGAGAUCGGGCGUUCGACUCGCCCCCGGGAGAUUUUUUCCUCGAGCAA: not above 0.026. CGCUCGGUAGCCAAGUCGGUUAAAGGCGCAAGUCUUUAAUUUAUCACUACGAAAUCUUGAGAUCGGGUGUUCGACUCGCCACCGGGAGAUUUUUUCCUCGAGCAA: the nonsense suppression is not above 0.026. CUCACGGUAGCCAAGUUGGUUUAAGGCGCAAAACUUUAAUUUAUCACUACGAAAUCUUGAGAUCGGGCGUUCGACUCGCCCCCGGGAGAUUUUUUCCUCGAGCAA: the nonsense suppression was not above 0.026. Then CUCUCGGUAGCUAAGUUGGUUUAAGGCGCAAGACUUUAAUUUAUCACUACGAAAUCUUGAGAUCGCGCGUUCGACUCGCCCCCGGGAGAUUUUUUCCUCGAGCAA, with not above 0.026. Next, CUCUCGGUAGCCAAGUUGGCUUAAGGCGCAAGACGUUAAUUUAUCACUACGAAAUAUGGAGAUCGGGCGUUCGACUCGUCCCCGGGAGAUUUUUUCCUCGAGCAA: not above 0.026; CUCUCGGUAGCCAAGUUGGUUUAAGGCGCAAGACUUUAAUUUAUCACUACGAAAUCUUGCGAUCGGGCGUUCGACUCGCCCCCGGCAAAUUUUUUCCUCGAGCAA: not above 0.026. Next, CUCUCGGUUGCCAAGUUGGUUUAAGUCGCAAGACUUUAAUUUAUCACUACGAAAUCUUGAGAUCCGGCGUUCGACUCGCCCCCGGGAGAUUUUUUCCUCGAGCAA: not above 0.026; CUCUCGAUAGCCAAGUUGGUUUAAGGCGCAAGACUUUAAUUUAUCACUACGAAAUCUUGAGGUCGGGCGUUCGACUCGCCCCCGGGAGAUUUUUUCCUCGAGCAA: not above 0.026. Turning to CUCGCGGUAGCCAAGUUGGUUUGAGCCGCAAGACUUUAAUUUAUCACUACGAAAUCUUGAGAUCGGGCGUUCGACUCGCCCCCGGGAGAUUUUUUCCUCGAGCAA, the nonsense suppression was not above 0.026.

Take CUCUCGGUAGCCAAGUCGGUUUAAGGCGCAAGACUUUAAUUUAUCACUACGAAAUCUUGAGAUCGGGCGUUCGACUCGCUCCCGGAAAAUUUUUUCCUCGAGCAA: the nonsense suppression is not above 0.026. With CUCUCGGUAGCGAAGUUGGUUUAAGGCGCAAGACUUUAAUUUAUCACUACGAAAUCUUGAGAUCGGGCGUUCGACUCGCGCCCGGCAGAUUUUUUCCUCGAGCAA, the nonsense suppression is not above 0.026. Next, CUCUCGGUAGCCAAGUAGGUUUUAGGCGCAAGACUUUAAUUUAUCACUACGAAAUCUUGAGAUCGGGCGUUCGACUCGCCCCCAGGAGAUUUUUUCCUCGAGCAA: not above 0.026; CUCUCGGUAGCCAAGUUGGUGUAGGGCGCAAGACUUUAAUUUAUCACUACGAAAUCUUGACAUCGGGCGUUCGACUCGCCCCCGGGAGAUUUUUUCCUCGAGCAA: not above 0.026. Next, CUCUCCGUAGCCAAGUUGGUUUAAGGCGCAAGACUUUAAUUUAUCACUACGAAAUCUCGAGAUCGGGCGUUCGACUCGCCCCCGGGAGAUUUUUUCCUCGAGCAA: not above 0.026; CUCUCGGAAGCCAAGUUCGUUUAAGGCGCAAGGCUUUAAUUUAUCACUACGAAAUCUUGAGAUCGGGCGUUCGACGCGCCCCCGGGAGAUUUUUUCCUCGAGCAA: not above 0.026; CUCUCGGUAGCCAAGUUGGUUGAAGGCGCAAGACUUUAAUUUAUCACUACGAAAUCAUGAGGUCGGGCGUUCGACUCUCCCCCGGGAGAUUUUUUCCUCGAGCAA: not above 0.026. With CUCUCGGUAGCCAAGUUGGUUUACGGCGCAAGACUUUAAUUUAUCACUACGAAAUCCGGAUAUCGGGCGUUUGACUCGCCCCCGGGAGAUUUUUUCCUCGAGCAA, the nonsense suppression is not above 0.026. CUCUCUGUAGCCAAGUUGGUUUAAGGCGCAAGACUUUAAUUUAUCACUACGAAAUCUUGAGAUGGUGCGGUCGACUCGCCCCCGGGAGAUUUUUUCCUCGAGCAA: the nonsense suppression is not above 0.026. Then CUCUCGGUAGCCAAUUUGGUUUAAGGCGCAAGACUUUAAUUUAUCACUACGAAAUCUUGAGAUCGGCCGUUCGACUCGCCCCCGGGAGAUUUUUUCCUCGAGCAA, with not above 0.026.

On to CUCUCGGUAGCCAAGUUGGUUUAGGGCGCAAGACUUUAAUUUAUCACUACGAAAUCUUGAGAUCGGGCGUUCGACUCGACCCCGGGAGAUUUUUUCCUCGAGCAA, for which the nonsense suppression is not above 0.026. Then CUCUCGGUAGCCAAGUUGGUUUGAGGCGCAAAACUUUAAUUUAUCACUACGAAAUCUUGAGAUCGGGCGUUCGACUCGCCCCCGGGAGAUUUUUUCCUCGAGCAA, with not above 0.026; and CUCUCGGUAGCCAAGUUGGUUUAAGGCGCAAGACUUUAAUUUAUCACUACGAAAUCAUGAGAUCGGGCGUUCGACUUGCCCCCGGGAGAUUUUUUCCUCGAGCAA, with not above 0.026. Next, CUCUCGGUAGCCAAGUUGGUUUAAGGCGCAGGACUUUAAUUUAUCACUACGAAAUCUUGACAUCGGGCGUUCGACUCGCCCCCCGUAGAUUUUUUCCUCGAGCAA: not above 0.026; CUCUCGGUAACGAAGUUGGUUUAAGGCGCAAGACUUUAAUUUAUCACUACGAAAUCUUGAGAUCGGGCGUUCGGCUCGCCCCCGGGAGAUUUUUUCCUCGAGCAA: not above 0.026. Then UUCUCGGUAGCCAAGUUGGUUUAAGGCGCAAGACUUUAAUUUAUCACUACGAAAUCUUGAGAUCGGGCGUUCGACUCGCCCGCGGCAGAUUUUUUCCUCGAGCAA, with not above 0.026; and CUCUCGGUAGCCAAGUUAGUUUAAGGCGCAAGACUUUAAUUUAUCACUACGAAAUAUUGAGAUCGGGCGUCCGACUCGCCCCCGAGAGAUUUUUUCCUCGAGCAA, with not above 0.026; and CUCUCGGUAGCCAAGUUAGUUUAAGGCGCAAGACAUUAAUUUAUCACUACGAAAUCUUGAGAUCGGGCGUUCGACUCGCCCCCGGGAGAUUUUUUCCUCGAGCAA, with not above 0.026. For CUCUCCGUAGCCAAGUUGGUUAAAGGCGAACGACUUUAAUUUAUCACUACGAAAUCUUGAGAACGGGCGGUCGACUCGCCCCCGGGAGAUUUUUUCCUCGAGCAA, the nonsense suppression was not above 0.026. As for CUCUCGGUAGCCAAGUUGGUUUAAUGAGCAAGAAUUUAAUUUAUCACUACGAAAUCUUGAGAUCGGGCGUUCGACUCGCCCCCGGGAGAUUUUUUCCUCGAGCAA, the nonsense suppression is not above 0.026. Then CUCUCGGUAGCCAGGUUGGUUUAAGGCGCCAGACUUUAAUUUAUCACUACGAAAUCUUGACAUCGGGCGUUCGGCUCGCCCCCGGGAGAUUUUUUCCUCGAGCAA, with not above 0.026. Then CUCUCGGUUGCCAGGGUGGUUUAAGGAGCAAGACUUUAAUUUAUCACUACGAAAUCUUGAGAUCGGGCGUUCGACUCGCCCCCGGGAGAUUUUUUCCUCGAGCAA, with not above 0.026; and CUCUCGGUAGCCAAGUUGGUUUAAGGCGCAAGACUUUAAUUUAUCACUACGAAAUCUUGAGAUCGGGCGUUCGACUCCCCCCCGGGACAUUUUUUCCUCGAGCAA, with not above 0.026; and CUCUCGGCCGCCAAGUGAGUUUAAGGCGCAAGACUUUAAUUUAUCACUACGAAAUCUUGAGAUCGGGCGUUCGACUCGCCCCCGGGAGAUUUUUUCCUCGAGCAA, with not above 0.026. Then CUCUCGGUAGCCAAGUUGGGUUAAGGCGCAAGACUUUAAUUUAUCACUACGAAAUCUUGAGAUCGGGCGUUCGACUCGCCCCCGCGAGAUUUUUUCCUCGAGCAA, with 0.0271; and CUCUCGGUAGCCAAGUUGGUUUAAGUCGCAAGACUUUAAUUUAUCACUACGAAAUCAUGAGAUCGGGCGUUCGACUCGCCCCCGGGAGAUUUUUUCCUCGAGCAA, with not above 0.026. Take CUCUCGGGAGCCAAGUUGGUUUAAGGCGCAAGACUUUAAUUUAUCACUACGAAAUCUAAAGAUCGGGCGUUCGACCCGCCCCCGGGAGAUUUUUUCCUCGAGCAA: the nonsense suppression is not above 0.026. Next, CUCUCGGUAGCCAACUUGGUUUAAGGCGCGAGAGAUUAAUUUAUCACUACGAAAUCUUGAGAUCGGGCGUUCCACUCGCCCCCGGGAGAUUUUUUCCUCGAGCAA: not above 0.026; CUCUCGGUAGCCAAGUUGGUUUGAGGCGCAAGACUUUAAUUUAUCACUACGAAAUCUUGAGAUCGGUCGUUCGACUCGCCCCCGGGAGAUUUUUUCCUCGAGCAA: not above 0.026; CUCUCGAUAGCCAAGUUGGUUUAAGACACAAGACUUUAAUUUAUCACUACGAAAUCUUGAGAUCGGGCGUUCGACUCGCCCGCGGGAGUUUUUUUCCUCGAGCAA: not above 0.026.

On to CUCUCGGUAGCCAAGUUGGUUUAAGGCGCAAGACUUUAAUUUAUCACUACGAAAUCUUUAGAUCGGGCGUUCGACUCGCACCCGGGAGAUUUUUUCCUCGAGCAA, for which the nonsense suppression is not above 0.026. Then CUCUCGGUAGCCAAGUUGGUUUAAGGCGCAAGACUUUAAUUUAUCACUACGAAAUCUUGAAAUCGGGCGUUCGACUCGCCACCGGGAGAUUUUUUCCUCGAGCAA, with not above 0.026; and CUCUCGCUAGCCAAGUUGGUUUCAGGCGCAAGACUUUAAUUUAUCACUACGAAACCUUGAGAUCGGGCGUUCGACUCGCCCUCGGGAGAUUUUUUCCUCGAGCAA, with not above 0.026; and CUCUCUGUAGUCUAGUUGGUUUAAGGCGCAAGACUUUAAUUUAUCACUACGAAAUCUUGAGAUCGGGCGUUCGACUCGCCCCCGGGAGAUUUUUUCCUCGAGCAA, with not above 0.026.

For CUCUCGGUCGCCAAGUUGGUUUAAGGCGCAGGACUUUAAUUUAUCACUACGAAAUCUUGAGAUCGGGGGUUCGACUCGCCCCCGGAAGAUUUUUUCCUCGAGCAA, the nonsense suppression was not above 0.026. Then CUCUCGGUCGCCAUGUUGGUUUAAGGCGGCAAGACUUAAUUUAUCACUACGAAAUCUUGAGAUCGGGCGUUCGACCCGCCCCCGGGAGAUUUUUUCCUCGAGCAA, with not above 0.026. Next, CUCUCGGUAUCCAAGUUGGUUUAAGGCGCAAGACUUUAAUUUAUCACUACGAAAUCCUGAGAUCGGGCGUUCCACGCGCCCCCGGGAGAUUUUUUCCUCGAGCAA: not above 0.026; CUCUCGGUAGCCAAAUUGGUUUAAGGCGCAAGACUUUAAUUUAUCACUACGAAAUCCUGAGAUCGGGCGUUCGACUCGCCCCCCGGAGAUUUUUUCCUCGAGCAA: not above 0.026.
